Assay results reported in ChEMBL document CHEMBL1201862, “PubChem BioAssay data set” (2004).
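1) Cells in 96-well plates. 2) Compound, 48 h, 5 concentrations. 3) Linear interpolation between surrounding doses. 4) Unreached endpoint = highest concentration. GI50 = concentration required for 50% inhibition of growth.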 Calls of active or inactive are those of the source. Cut-off read from the data, not from the text of the source: active = GI50 up to about 1.1 µM and inactive = higher.

The molecules below were run on NCI-H322M (assay: growth of human tumour cells (NCI), 48 h).

Row | SMILES | GI50
1 | O=C(NCCS(=O)(=O)N1C(=O)C2CCCN2C(=O)[C@@H]1Cc1ccccc1)OCc1ccccc1 (stereo partly drawn) | inactive: > 100 µM
2 | CC(=O)O/N=C/c1ncccc1CO | inactive: > 100 µM
3 | N#Cc1c(C#N)c(-c2ccco2)n(-c2ccccc2)c1N | inactive: > 100 µM
4 | COC(=O)C1=C(O)C(O)=C(C(=O)OC)C1 | inactive: > 100 µM
5 | O=C1C(Cl)C(c2cc3cc(Br)ccc3nc2Cl)N1c1ccc(F)c(Cl)c1 (stereo not drawn) | inactive: 12.1 µM
6 | O=c1c2ccccc2n2c(S)nnc2n1-c1ccccc1 | inactive: > 100 µM
7 | COc1cccc(N2C(Cl)C(=O)C2c2c[nH]c3ccccc23)c1 (stereo not drawn) | inactive: > 100 µM
8 | CC1=NN(C(=O)c2cc(Cl)cc([N+](=O)[O-])c2)C(=O)C1/N=N/c1ccccc1C(=O)O (stereo not drawn) | inactive: > 100 µM
9 | CSc1nc(C#N)c(N)n1C | inactive: > 100 µM
10 | COc1ccc2c(c1)CN([C@@H](C)[C@H]1CC[C@H]3[C@@H]4CC[C@H]5C[C@@H](O)CC[C@]5(C)[C@H]4CC[C@]13C)CO2 | inactive: 3.05 µM
11 | COc1cc2c(cc1OCCCCCCCCN1C(=O)c3cccc4cccc(c34)C1=O)N=C[C@@H]1CCCN1C2=O | inactive: 22.1 µM
12 | C#C[C@@]1(O)CCCC2=CC(=O)C[C@]21C | inactive: > 100 µM
13 | Cc1ccc(SSCCCS(=O)O)cc1 | inactive: 45 µM
14 | C=C(C)CCC(O)[C@](C)(O)[C@H]1[C@H](O)C[C@@]2(C)[C@@H]3CCc4c(cc(OC5OC(CO)C(O)C(O)C5O)c(O)c4C)C3(C)C(=O)C[C@]12C (stereo partly drawn) | inactive: > 100 µM
15 | COc1ccc(C2(Cl)C(Cl)(C(F)(F)F)C2(Cl)C(F)(F)F)cc1 (stereo not drawn) | inactive: 16.2 µM
16 | Fc1ccccc1C1CC(C(c2ccccc2)c2ccccc2)=Nc2ccccc2S1 (stereo not drawn) | inactive: 12 µM
17 | COc1ccc2nc3cc(Cl)ccc3c(NCCNCCCNC(=O)c3cc(-c4ccccc4)nc4ccccc34)c2c1 | inactive: > 100 µM
18 | C[C@@]12CCC(=O)C=C1CC[C@H]1C2=CC[C@]2(C)C1CC[C@@]2(C)O (stereo partly drawn) | inactive: > 100 µM
19 | CC(C)(C)OC(=O)NC(CSCc1ccc(C(=O)c2ccccc2)cc1)C(=O)O (stereo not drawn) | inactive: > 100 µM
20 | CCOC(=O)c1oc2cc3c(c4c2c1-c1ccccc1N4C)C=CC(C)(C)O3 | inactive: 18.8 µM
21 | CC(=O)c1c2c(c3ccccc3c1O)O[C@@H]1OCC[C@H]21 | inactive: > 100 µM
22 | Cc1cc(C)n(CN(Cn2nc(C)cc2C)c2ccccc2)n1 | inactive: > 100 µM

Row | SMILES | GI50
23 | CS(=O)(=O)c1ccc(/C=N/NC(N)=S)cc1 | inactive: > 100 µM
24 | COC(=O)c1cc2c(s1)C(=O)c1ccccc1-2 | inactive: > 100 µM
25 | O=C(O)c1cc(/C=C/c2ccc(O)c(O)c2)ccc1O | inactive: > 100 µM
26 | COC(=O)C(Cc1ccccc1)NC(=O)CNC(=O)CSc1nnc(COc2ccc(Cl)cc2)n1-c1ccccc1 (stereo not drawn) | inactive: 18.4 µM
27 | c1ccc2c(c1)SC1Sc3ccccc3[S+]21 (stereo not drawn) | inactive: 56.1 µM
28 | CC(=O)Nc1ccc(C(=O)NN2C(=O)C(Cl)C2c2cc(Br)cc(Br)c2O)cc1 (stereo not drawn) | inactive: > 100 µM
29 | O=C(Nc1cccc(O)c1)C(=O)C1C(=O)NC(=S)NC1=O | inactive: > 100 µM
30 | COc1ccc(C(OCC2OC(n3cc(C)c(=O)[nH]c3=O)CC2n2cc(Cn3cc(F)c(=O)[nH]c3=O)nn2)(c2ccccc2)c2ccccc2)cc1 (stereo not drawn) | inactive: 4.8 µM
31 | CCn1cnc2c(=S)nc(N)[nH]c21 | inactive: > 100 µM
32 | C=CCNC(=S)N/C=C(\C#N)C(N)=O | inactive: > 100 µM
33 | COc1cc(OC)c2nc3occc3c(OC)c2c1 | inactive: > 100 µM
34 | O=C1c2c(Br)sc(Br)c2[C@@H](O)[C@H]1O | inactive: 16 µM
35 | C/N=C(\SC)N(C)c1nc(=[N+](C)C)ss1.[O-][Cl+3]([O-])([O-])[O-] | inactive: > 100 µM
36 | Cc1ccc(S(=O)OC23CC4CC(CC(C4)C2)C3)cc1 (stereo not drawn) | inactive: > 100 µM
37 | [O-][S+](Cc1cnc2ccccc2c1)c1nc2ccccc2nc1-c1cccs1 (stereo not drawn) | inactive: 17.8 µM
38 | O=C1c2cc([N+](=O)[O-])ccc2-c2ccc3c4ccc5c6c(ccc(c7ccc1c2c73)c64)C(=O)c1cc([N+](=O)[O-])ccc1-5 | inactive: > 100 µM
39 | CCCCCCCCCCCCCC(=O)NCO | inactive: > 100 µM
40 | O=C1Sc2sc(=S)sc2SC1c1ccccc1 (stereo not drawn) | inactive: > 100 µM
41 | O=C1C=Cc2cscc21 | inactive: > 100 µM
42 | CCOC(=O)c1cc(C)nc2c1c(=O)n(-c1ccccc1)c(=O)n2CCCCN1CCN(c2ccccc2)CC1 | inactive: 53.3 µM
43 | CN1C/C(=C\c2cccs2)C2=NC(=S)NC(c3cccs3)C2C1 (stereo not drawn) | inactive: > 100 µM
44 | Cc1cc(C)c(C2[C@H]3C(=O)N(c4ccc(Cc5ccc(N6C(=O)[C@@H]7ON(c8ccccc8)C(c8c(C)cc(C)cc8C)[C@@H]7C6=O)cc5)cc4)C(=O)[C@H]3ON2c2ccccc2)c(C)c1 (stereo partly drawn) | inactive: > 100 µM

Row | SMILES | GI50
45 | CCOC(=O)NC(=O)c1cn(CCSCCOC(=O)NCCCCCCNC(=O)OCCSCCn2cc(C(=O)NC(=O)OCC)c(=O)n(C)c2=O)c(=O)n(C)c1=O | inactive: 64.7 µM
46 | C[N+]1(C)CCCC1C(=O)[O-] (stereo not drawn) | inactive: > 100 µM
47 | COC1=CC(=O)c2nc3ccccc3c3ccnc1c23 | inactive: 1.92 µM
48 | CN(O)C(=O)Cc1ccccc1 | inactive: > 100 µM
49 | Cc1cc(C)c2c(=O)n(CC(O)CN(Cc3ccccc3)CC(O)Cn3sc4nc(C)cc(C)c4c3=O)sc2n1 (stereo not drawn) | inactive: 18.5 µM
50 | CNC(=O)OCC1C2=C(C(=O)C(C)=C(N)C2=O)N2CC3C(N3C)C12OC (stereo not drawn) | inactive: 14.8 µM
51 | CC1CCC2(C(=O)O)CCC3(C)C(=CCC4C5(C)CC(O)C(O)C(C)(CO)C5C(O)CC43C)C2C1C (stereo not drawn) | inactive: > 90.4 µM
52 | CCC(C)C1=C(O)[N+]2([O-])Oc3ccc(-c4c(O)c(O)c(-c5ccc(O)cc5)c(OC(C)=O)c4OC(C)=O)cc3OC2(C(C)CC)C(=O)N1O (stereo not drawn) | inactive: > 50 µM
53 | COCCN(CCOC)C(=O)COc1c2cc(C(C)(C)C)cc1Cc1cc(C(C)(C)C)cc(c1OCC(=O)N(CCOC)CCOC)Cc1cc(C(C)(C)C)cc(c1OCC(=O)N(CCOC)CCOC)Cc1cc(C(C)(C)C)cc(c1OCC(=O)N(CCOC)CCOC)Cc1cc(C(C)(C)C)cc(c1OCC(=O)N(CCOC)CCOC)C2 | inactive: 3.28 µM
54 | C/C=C1/CN2CCc3c([nH]c4ccccc34)[C@@H]2C[C@@H]1Cc1nccc2c1[nH]c1cc(O)ccc12 | inactive: 1.87 µM
55 | O=c1c2cc(-c3ccccc3)cnc2sn1-c1ccc([N+](=O)[O-])cc1 | inactive: 31.8 µM
56 | COc1ccc2c3c1OC1C(F)C=CC4(O)C(C2)NCCC314 (stereo not drawn) | inactive: 5.05 µM
57 | Cc1ccccc1NC(=O)CC(=O)n1nc(-c2ccccc2)c(/N=N/c2ccc([N+](=O)[O-])cc2)c1-c1ccccc1 | inactive: 24.9 µM
58 | CN1c2ccccc2N(C(=O)c2ccccc2)C(CC(=O)O)c2cccn21 (stereo not drawn) | inactive: > 100 µM
59 | N#CCC(=O)Nc1cccc(C(F)(F)F)c1 | inactive: > 100 µM
60 | CC(=O)OC(C[C@H](C)[C@@H]1CC[C@]2(C)C3=CCC4C(C)(C)C(=O)CC[C@]4(C)C3CCC12C)C1OC1(C)C (stereo partly drawn) | inactive: 19.9 µM
61 | Cc1ccc(NC(=O)CC(=O)N2N=C(N(c3ccccc3)c3ccccc3)CC2c2ccccc2)cc1 (stereo not drawn) | inactive: > 100 µM
62 | N#Cc1sc2c(c1OC(=O)c1ccc(Cl)cc1)c(=O)n(-c1ccccc1)c(=S)n2-c1ccccc1 | inactive: 30.1 µM
63 | CCCCCCCCCCCCC(CC)CCCCC(=O)O (stereo not drawn) | inactive: > 100 µM
64 | CCC(=O)c1cn(C)c(=O)c2ccccc12 | inactive: > 100 µM
65 | CC(C)(C)C(=O)OCC1CCC[N+]2(C)CCCCC12 (stereo not drawn) | inactive: > 100 µM
66 | O=c1[nH]c(-c2ccccc2)nc2ccc(Cl)cc12 | inactive: 95.9 µM

Row | SMILES | GI50
67 | CC(C)=C1CCC(CN(C)C)C1=O (stereo not drawn) | inactive: > 100 µM
68 | CC(C)(C)c1nc2c(o1)C(=O)c1ccccc1C2=O | inactive: 3.18 µM
69 | CCOC(C[Se]CC(OCC)OCC)OCC | inactive: 40.4 µM
70 | CC1=C(/C=C/C(C)=C/C=C/C(C)=C/C(=O)Nc2ccc(O)cc2)C(C)(C)CCC1 [FENRETINIDE] | inactive: 6.7 µM
71 | Cc1cc(C)nc(NS(=O)(=O)c2ccc(NNC(=O)c3cccc4c(=O)c5ccccc5[nH]c34)cc2)n1 | inactive: 52.2 µM
72 | Nc1nc2c(nnn2C2C=C(CO)C(O)C2O)c(=O)[nH]1 (stereo not drawn) | inactive: > 100 µM
73 | O=C(OC1C=C=CS(=O)(=O)CC#C/C=C\1)c1cnc2ccccc2n1 (stereo not drawn) | inactive: > 100 µM
74 | Oc1c(N2CCCCC2)cc(-c2cc(N3CCCCC3)c(O)c3ccccc23)c2ccccc12 | inactive: 19.2 µM
75 | CC(C)(C)OC(=O)N1[C@@H]2Cc3ccc(N)cc3[C@@]1(C)c1ccccc12 | inactive: 53.2 µM
76 | CCCCN(CC)CC(C(C)=O)c1c(O)c2ccccc2oc1=O (stereo not drawn) | inactive: > 100 µM
77 | C1CSC(=[N+]2CC[N+](=C3SCCS3)CC2)S1 | inactive: 42.7 µM
78 | N#CCc1nc(Cc2ccccc2)n[nH]1 | inactive: > 100 µM
79 | O=C(c1ccco1)N(C(=O)N1CCN(c2ccccc2)CC1)S(=O)(=O)c1ccccc1 | inactive: 88.7 µM
80 | CCOC(=O)C1N(S(=O)(=O)c2ccc(C)cc2)CCC12C(c1ccc(OC)cc1)NC1CCCCC12 (stereo not drawn) | inactive: > 100 µM
81 | Fc1ccc2c(c1)nc1n2C(c2c(Cl)cccc2Cl)SC1 (stereo not drawn) | inactive: 20.3 µM
82 | Nc1c(C(=O)c2ccc(Cl)cc2)[nH]c(Nc2ccc(Cl)cc2)c1C(=S)Nc1ccccc1 | inactive: 14.4 µM
83 | CCN(C(=O)N[C@@H](C)C(=O)N[C@@H](Cc1ccccc1)C(=O)OC)c1ccccc1 | inactive: 57.5 µM
84 | O=C(CC/C(CC(=O)c1ccc(Br)cc1)=N\O)Nc1ccc(Cl)c(Cl)c1 | inactive: > 100 µM
85 | N#CCc1n[nH]c2nc(SCc3ccccc3)nc(N3CCCCC3)c12 | inactive: 21.6 µM
86 | CC1(C)CCc2c(cc3c(c2O)CCC(C)(C)O3)O1 | inactive: > 100 µM
87 | Cc1nc2cc(/N=N/c3c(C)noc3C)ccc2[nH]1 | inactive: 23.9 µM
88 | COc1c(-c2nc3ccc(N4CCN(C)CC4)nc3[nH]2)cc(OC)c2c1nc(CCl)n2C | inactive: 28.6 µM
